This note sets out measurements from patent US20230287125A1 (LEPU BIOPHARMA, published 2023).

In assay [1] the target is rat PD-L1 protein (rat, UniProt D4AE25 19-239). In words: ELISA, coated rat PD-L1. Background: An ELISA detects its analyte on a solid surface through an enzyme-linked reagent.
The target in assay [2] is T1, human TGF-β1 protein (human, UniProt P01137 part only).
T1 construct: also called human TGF-β1 protein (Acro, TG1-H4212); recombinant human TGF-β1
Briefly: SPR (Biacore T200), LP008-02 captured on Protein A chip, human TGF-β1 injected. The procedure: (§1) All the experiments were carried out on a Biacore T200. Data analysis was carried out using Biacore T200 evaluation software.

Assay [3] addresses T2, human PD-L1-his tag protein (human, UniProt Q9NZQ7 part only).
T2 construct: also called human PD-L1-His protein; recombinant PD-L1 protein; not shown: his tag
Briefly: ELISA, coated human PD-L1-His. An excerpt: (§2) After washing, the plates were developed with TMB substrate and analyzed by spectrophotometer at OD 450 nm.

In assay [4] the target is rat TGF-β protein (rat). In words: ELISA, coated rat TGF-β.
Excerpt: as §2

Assay [5] has as its target cynomolgus PD-L1 protein (cynomolgus, UniProt G7PSE7 19-238). Briefly: ELISA, coated cynomolgus PD-L1.
Excerpt: as §2

The target of assay [6] is cynomolgus TGF-β protein (cynomolgus). Briefly: ELISA, coated cynomolgus TGF-β.
Excerpt: as §2

Assay [7] addresses PD-L1 on PD-L1 target cells (Homo sapiens (Human), UniProt Q9NZQ7). In words: cell-based or functional assay.
Assay [8] has as its target mouse TGF-β protein (mouse). In words: ELISA, coated mouse TGF-β.
Excerpt: as §2

Assay [9] deals with mouse PD-L1 protein (mouse, UniProt Q9EP73 part only). Briefly: ELISA, coated mouse PD-L1.
Assay [10] concerns the target T2, human PD-L1-his tag protein. Briefly: SPR (Biacore T200), LP008-02 captured on Protein A chip, PD-L1-his injected. How it is done: as §1
In general terms: Surface plasmon resonance follows binding to a sensor surface in real time, without labels.

Assay [11] concerns the target T1, human TGF-β1 protein. Briefly: ELISA, molecule titrated on coated human TGF-β1, anti-human IgG Fc-HRP, OD 450nm.
In assay [12] the target is T1, human TGF-β1 protein. In words: ELISA, molecule titrated on coated human TGF-β1, OD 450nm; right panel.
Excerpt: as §2

The target in assay [13] is T1, human TGF-β1 protein. In words: ELISA, molecule titrated on coated human TGF-β1, OD450 nm; left panel.
Excerpt: as §2

Assay [14] addresses T2, human PD-L1-his tag protein. Briefly: SPR (Biacore T200), molecule captured on Protein A chip, PD-L1-his injected. How it is done: A serial dilution of human PD-L1-his tag protein was injected over captured antibody for 2 mins at a flow rate of 30 μl/min. The antigen was allowed to dissociate for 1500 s. All the experiments were carried out on a Biacore T200. Data analysis was carried out using Biacore T200 evaluation software.

T1 sequence (P01137 279-390 limits assumed): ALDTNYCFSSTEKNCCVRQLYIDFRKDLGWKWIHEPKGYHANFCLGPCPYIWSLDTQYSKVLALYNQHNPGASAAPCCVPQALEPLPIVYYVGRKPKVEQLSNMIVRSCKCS
T2 sequence (Q9NZQ7 19-238 limits assumed): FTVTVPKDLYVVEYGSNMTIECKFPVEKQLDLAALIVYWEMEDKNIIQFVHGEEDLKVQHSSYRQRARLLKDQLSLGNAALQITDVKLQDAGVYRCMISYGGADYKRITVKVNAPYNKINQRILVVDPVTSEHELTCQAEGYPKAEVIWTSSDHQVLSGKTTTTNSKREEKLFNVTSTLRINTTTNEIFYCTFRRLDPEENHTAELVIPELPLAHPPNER
Chain of UniProt D4AE25 (D4AE25 entry or part of it limits assumed): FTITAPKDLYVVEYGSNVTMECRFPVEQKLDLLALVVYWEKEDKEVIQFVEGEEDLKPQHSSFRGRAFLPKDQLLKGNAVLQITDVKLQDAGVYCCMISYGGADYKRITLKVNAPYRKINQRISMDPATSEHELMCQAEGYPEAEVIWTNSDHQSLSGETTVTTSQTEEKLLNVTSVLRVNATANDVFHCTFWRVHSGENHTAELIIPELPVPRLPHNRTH
Chain of UniProt Q9EP73 (Q9EP73 19-239 limits assumed): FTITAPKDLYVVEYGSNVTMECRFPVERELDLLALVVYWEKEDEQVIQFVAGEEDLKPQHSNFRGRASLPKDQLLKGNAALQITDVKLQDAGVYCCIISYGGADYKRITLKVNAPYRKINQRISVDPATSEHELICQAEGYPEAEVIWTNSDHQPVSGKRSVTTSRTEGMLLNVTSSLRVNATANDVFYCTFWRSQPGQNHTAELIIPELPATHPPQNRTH
Chain of UniProt G7PSE7 (G7PSE7 entry or part of it): as the sequence (Q9NZQ7 19-238 limits assumed) above, with A33T, A34S, S62N, R68Q, Q82R, F173L, T185A, T192I, H215L counted along it

B1: LP008-02 (other)
heavy: EVQLVQSGAEVKKPGASVKVSCKASGYTFTDFWVSWVRQAPGQGLEWMGEIYPNSGVSRYNEKFKGRVTMTVDKSISTAYMELSRLRSDDTAVYYCTKYFGYTYWFGYWGQGTLVTVSSASTKGPSVFPLAPSSKSTSGGTAALGCLVKDYFPEPVTVSWNSGALTSGVHTFPAVLQSSGLYSLSSVVTVPSSSLGTQTYICNVNHKPSNTKVDKRV[not shown - human IgG1 Fc]GGGGSGGGGSGGGGSGGGGSGIPPHVQKSVNNDMIVTDNNGAVKFPQLCKFCDVRFSTCDNQKSCMSNCSITSICEKPQEVCVAVWRKNDENITLETVCHDPKLPYHDFILEDAASPKCIMKEKKKPGETFFMCSCSSDECNDNIIFSEEYNTSNPD
light: DIQMTQSPSSLSASVGDRVTITCRASKSVSTYMHWYQQKPGKQPKLLIYSASHLESGVPSRFSGSGSGTDFTLTISSLQPEDFATYYCQQSNELPVTFGGGTKVEIKRTVAAPSVFIFPPSDEQLKSGTASVVCLLNNFYPREAKVQWKVDNALQSGNSQESVTEQDSKDSTYSLSSTLTLSKADYEKHKVYACEVTHQGLSSPVTKSFNRGEC
notes: bifunctional anti-PD-L1 antibody / TGF-β RII extracellular domain fusion protein
Regarding B1, the binding result in [1] and in [9] was “no binding (tested: dilutions starting from 1 µg/ml)” each time. The equilibrium dissociation constant (Kd) (usually the free concentration of one partner at which half of the binding sites on the other are occupied at equilibrium, for simple one-to-one binding) in assay [2] was 0.0021 nM; in assay [10] it was 0.0413 nM. Moreover, the results for the koff in assay [2] and in assay [10] were 0.000272 s⁻¹ and 0.000104 s⁻¹, respectively. Further, the on-rate (kon) (usually the rate constant with which the complex forms) in assay [2] was found to be 1.29e+08 M⁻¹ s⁻¹; in [10], 2.53e+06 M⁻¹ s⁻¹. For the same molecule, the concentration for a half-maximal effect (EC50) (commonly the concentration needed to bring the measured effect to its halfway point) amounted to 0.0118 µg/mL in [3]; 0.0778 µg/mL in assay [4]; 0.00789 µg/mL in assay [5]; 0.0344 µg/mL in assay [6]; 0.0347 µg/mL in assay [8]. Further, the “EC50, NFAT-RE-mediated luminescence, PD1 effector cells co-cultured with PD-L1 target cells” value in assay [7] was found to be 0.363 nM.

B2: LP008-02-1 (other)
heavy: B1 heavy
light: B1 light
notes: modified LP008-02; also called Molecule 1
In the case of B2, the concentration giving a half-maximal response (EC50) worked out at 0.245 nM in assay [11], 1.21 nM in assay [12] and 0.926 nM in assay [13].

B3: LP008-06a-ES (other)
heavy: EVQLVESGGGLVKPGGSLRLSCAASGFTFSNYWMTWIRQAPGKGLEWVASITNTGSSTFYPESVKGRFTISRDNAKNSLYLQMNSLRAEDTAVYYCTRDTTIAPFDYWGQGTMVTVSSASTKGPSVFPLAPSSKSTSGGTAALGCLVKDYFPEPVTVSWNSGALTSGVHTFPAVLQSSGLYSLSSVVTVPSSSLGTQTYICNVNHKPSNTKVDKRV[not shown - human IgG1 Fc]GGGGSGGGGSGGGGSGGGGSGIPPHVQKSVNNDMIVTDNNGAVKFPQLCKFCDVRFSTCDNQKSCMSNCSITSICEKPQEVCVAVWRKNDENITLETVCHDPKLPYHDFILEDAASPKCIMKEKKKPGETFFMCSCSSDECNDNIIFSEEYNTSNPD
light: DIQMTQSPSSLSASVGDRVTITCKASQNLNEYLNWYQQKPGKAPKRLIYKTNTLQAGIPSRFSGSGSGTDYTLTISSLQPEDFATYYCSQYQSGNTFGQGTKLEIKRTVAAPSVFIFPPSDEQLKSGTASVVCLLNNFYPREAKVQWKVDNALQSGNSQESVTEQDSKDSTYSLSSTLTLSKADYEKHKVYACEVTHQGLSSPVTKSFNRGEC
notes: as for B1
B3: the binding result in assay [1] and in [9] was “no binding (tested: dilutions starting from 1 µg/ml)” in each case. Moreover, the EC50 in assay [3] was 0.0144 µg/mL; in assay [4] it was 0.121 µg/mL; in assay [5], 0.0109 µg/mL; in assay [6] it was 0.0583 µg/mL; in assay [8] it was 0.0583 µg/mL. Also, the Kd in assay [14] is 0.0631 nM. In addition, the koff – broadly, the rate constant with which the complex falls apart – in assay [14] was 5.3e-05 s⁻¹. The kon in assay [14] is 840000 M⁻¹ s⁻¹. For the same molecule, the “EC50, NFAT-RE-mediated luminescence, PD1 effector cells co-cultured with PD-L1 target cells” value in assay [7] was determined as 0.455 nM.
